Data: the supplement of paper PMC8674133

B1: C1229 (protein)
chain 1: QVQLVESGGGVVQPGRSLRLSCAASGFTFSSYALHWVRQAPGKGLEWVALISYDGSNKHYADSVKGRFTISRDNSKNTLYLQMNSLRVEDTAVYYCARDYCGSTSCPYLFDYWGQGTLVTVSS
chain 2: SYELTQPPSVSVAPGETARITCGGNNIGSKSVHWYQQKPGQAPVLVVYDDSDRPSGIPERFSGSNSGNTATLTISRVEAGDEADYYCQVWDISIDHVVVFGGGTKLTVL
B2: C1212 (protein)
chain 1: QVQLVQSGAEVKKPGSSVKVSCKASGGTFSSYTISWVRQAPGQGLEWMGGIIPILGIADYAQKFQGRVTITADKSTSTAYMELSSLRSEDTAVYYCARGSFRDPAMWGPMPEYFQHWGQGTLVTVSS
chain 2: DIQMTQSPSSLSASVGDRVTITCRASQSVSSFLNWYQQKPGKAPKLLIYAASSLQSGVPSRFSGSGSGTDFTLTISSLQPEDFATYYCQQSYIIPGTFGQGTKLEIK
B3: C1238 (protein)
chain 1: QVQLQQWGAGLLKPSETLSLTCAVYGGSFSGYYWSWIRQPPGKGLEWIGEINHSGSTNYSPSLQSRVTISVDTSKNHFSLKLTSVTAADTAVYYCARLVREYSFGLDYWGQGTLVTVSS
chain 2: B2 chain 2 with S31H, K45N, T72S, I93T, G96N
B4: C1430 (protein)
chain 1: QVQLVESGGGVVQPGRSLRLSCAASGFTFSNYGMHWVRQAPGKGLEWVALIWYDGSYKYYADSVKGRFTISRDNSQNTLYLQLNSLRDEDTAVYYCAREGDCSGGNCWKGIWYFDLWGRGTLVTVSS
chain 2: QSALTQPRSVSGSPGQSVTISCTGTSSDVGGYNFVSWYQQHPGKAPKLMIYDVIKRPSGVPDRFSGSKSGNTASLTISGLQADDEADYYCCSYAGSYTYVFGTGTKVTVL
B5: C1431 (protein)
chain 1: QVQLQESGPGLVKPSQTLSLICTVSGGSISSGDYSWSWIRQHPGKGLDWIGYISYSGSTYYKPSLKSRVNISLDTSKNQFSLRLRSVTAADTAVYYCARLKRYLEWSKETYEYYFDYWGQGTLVTVSS
chain 2: SYELTQPPSVSVSPGQTASITCSGNKLGEKYVCWYHQKPGQSPVLVMYQDDRRPSGIPERFSGSNSGNTATLTISGAQAMDEADYYCQAWDSTTAVFGGGTTLTVL
B6: C1210 (protein)
chain 1: QVQLVQSGAEVKKPGSSVKVSCKASGGTFSNYGISWVRQAPGQGLEWMGRIIPMFGIANYAQKFQGRVTITADKSTSTVYMELASLRSEDTAVYYCARDQWESDYYDNSDYYYVDYWGQGTLVTVSS
chain 2: QSVLTQPPSVSGAPGQRVTISCTGSSSNIGAGYDVHWYQQLPGTAPKLLIYDNSNRPSGVPDRFSGSKSGTSASLAITGLQAEDEADYHCQSYDRSLSDVVFGGGTKLTVL
B7: C1433 (protein)
chain 1: QVQLVQSGAEVKKPGASVKVSCKSSGYSFTTYGISWVRQAPGQGLEWMGWISTYNGNTNYAQKVQGRVTMTRDTSTSTATMELRSLRSDDTAVYYCARDRLAAAIDYFDYWGQGTLVTVSS
chain 2: SYELTQPPSVSVAPGQTARITCGGNDIGSKSVHWYQQKPGQAPVLVVYDDTYRPSGIPERFTGSNSGNTATLTISRVAAGDEADYYCQVWDGTSDHPGVVFGGGTKLTVL
B8: C1209 (protein)
chain 1: EVQLLESGGGLVQPGGSLRLSCVGSGFTFSTYAMRWVRQAPGKGLKWISEISATDDSTHYADSVKGRFIISRDNSKNTVYLQMNSLTAEDTAVYYCAKLASTSWTVYFYHAMDVWGQGTTVTVSS
chain 2: SYELTQPPSVSVAPGKTATITCGGDNIGIKSVHWYQQKPGQAPVLVVYDDRDRPSGIPERFSGSNSGNPATLTISRVEAGDEADYYCQLWESSSVVFGGGTKLTVL
B9: C1429 (protein)
chain 1: EVQLVESGGGLVQPGGSLRLSCTASGFTLSSYSMHWVRQAPGKGLEWISFISSSATTIYYADSVKGRFTISKDNDNDSLYLRMNSLRDEDTAVYYCARERRPYYDFWSGPDSGFDPWGQGTLVTVSS
chain 2: QSVLTQPPSASGTPGQRVTISCSGSSSNIGSNTVNWYQQLPGTAPKLLIYSNNQRPSGVPDRFSGSKSGTSASLAISGLQSEDEADYYCSAWDASLNGWLFGGGTKLTVL
B10: C2478 (protein)
chain 1: EVQLVESGGGLVQPGRSLRLSCSVSGFTFDEYAMHWVRQAPGKGLEWVSGISWNGGTIGYADSVKGRFTISRDNAKNSLYLQMNSLRAADTALYYCAKDIYPLDYGDAFFFDSWGQGTLVTVSS
chain 2: EIVLTQSPGTLSLSPGERVTLSCRASQRVSSSYLAWYQQKPGQAPRLLIYGASSRAIGIPDRFSGGGSGTDFTLTISRLEPEDFAVYYCQCYGSTPPITFGPGTKVDIK
B11: C2427 (protein)
chain 1: EVQLLESGGGLVQPGGSLRLSCAASGFSFSSYAMSWVRQAPGKGLEWVSGLSGNGVNTYYVDSVKGRFTISRDNSKNTLYLQMNSLRAEDTSVYYCAKVLHGGWFPFDAFDIWGQGTMVTVSS
chain 2: QSVLTQPPSVSAAAGQKVTISCSGSSSNIGNNYVSWYQQLPGTAPKLLIYENNRRPSGIPDRFSGSKSGTSATLGITGLQTGDEATYYCGTWESSLDVVVFGGGTKLTVL
B12: C1215 (protein)
chain 1: QVQLVESGGGVVQPGGSLRLSCAASGFTFSSYGMHWVRQAPGKGLEWVAFILYDGSNKYYVDSVKGRFTISRDNSKNTLYLQMNSLRAEDTAVYYCVKDPVGGYCRGGNCYDFYAMDVWGQGTTVTVSS
chain 2: NFMLTHPHSVSESPGKTVTISCTRSSGSIASNYVQWYQQRPGSSPTTVIYEDNQRPSGVPDRFSGSIDSSSNSASLTISGLKTEDEADYYCQSSDSSTVVFGGGTKLTVL
B13: C1434 (protein)
chain 1: QVQLVESGGSVVQPGRSLRLSCAASGFTFRHYVMHWVRQAPGKGLEWVAVILYDGSDKYYADSVKGRFTISRDNSKNTLYLQMNSLRAEDTAVYYCAKGAEPYCSAGNCYSNYFDYWGQGTLVTVSS
chain 2: IQLTQSPSSLSASVGDRVTITCRASQAISSALAWYQQKSGKPPKLLIYHASSLQSGVPSRFSGSGSGTDFTLTISSLQAEDFATYYCQQFNSYSTFGPGTKVDIK
B14: C1432 (protein)
chain 1: QVQLQESGPGLVKPSQTLSLSCNVSGDSISSSGYQWNWIRQHPGKGLEWIAYIYYSGSAYYNPSLKSRVTMSVDTSKNRFSLKLSSVTAADTAVYYCARRGVDSILIGASVIDYYYYGMDVWGQGTTVTVSS
chain 2: QSALTQPASVSGSPGQSITISCTGTSSDVGGYTYVSWYQQHPGKAPKVIIYDVSNRPSGVSNRFSGSKSGNTASLTISGLQAEDEADYYCSSYTSSSTYVFGTGTKVTVL
B15: C1206 (protein)
chain 1: EVQLVESGGGLVQPGGSLRLSCAASGLTVSSNYMNWVRQAPGKGLEWVSVIYSGGSTFYADSVKGRFMISRDNSKNTLYLQMNSLRAEDTAVYYCARESYGMDVWGQGTTVTVSS
chain 2: DIQLTQSPSFLSASVGDRVTITCRASQGISSYLAWYQQKPGKAPKLLIYAASTLQSGVPSRFSGSGSGTEFTLTISSLQPEDFATYYCQQLNSYPPRDTFGQGTKLEIK
B16: C2479 (protein)
chain 1: VQLVESGGGVVQPGRSLRLSCAASGFTFSSYGMHWVRQAPGKGLEWVAVISDDGSFKYYADSVKGRFTISRDNSKKTLDLQMTRLRAEDTAVYYCARDWGSTVTLFDSWGQGSLVTVSS
chain 2: DIQLTQSPSSLSASVGDRVNITCRASQSIITYLNWYQQKPGKAPKLLIYGASSLQSGVPSRFSGSGSGTDFTLTISSLQPADFATYYCQQSYNTPPWTFGQGTKVEIK

What was measured:
[1] = biological target: SARS-CoV-2 Wuhan-Hu-1 spike pseudovirus; assay: pseudovirus neutralization IC50; higher = weaker neutralization
Experimental: (§1)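 Single-round luciferase reporter pseudovirus mixed with antibody dilutions and put on 293T-ACE2 cells for 48 h; signal relative to no-antibody wells, four-parameter fit.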

[2] = biological target: SARS-CoV-2 Wuhan-Hu-1 spike pseudovirus; assay: pseudovirus neutralization IC90; higher = weaker neutralization
Experimental: as §1

[3] = biological target: SARS-CoV-2 Wuhan-Hu-1 spike receptor-binding domain; assay: ELISA binding EC50; higher = weaker binding; ELISA of recombinant human antibody on coated antigen, from 10 µg/ml in fourfold dilutions; four-parameter fit.

Row | Binder | pseudovirus neutralization IC50 [1] [µg/mL] | pseudovirus neutralization IC90 [2] [µg/mL] | ELISA binding EC50 [3] [µg/mL]
1 | B1 | 0.697 | > 1 | 0.00946
2 | B2 | 0.00732 | 0.119 | 0.00292
3 | B3 | > 1 | > 1 | 0.0591
4 | B4 | 0.015 | 0.103 | 0.00405
5 | B5 | > 1 | > 1 | 0.00236
6 | B6 | 0.141 | > 1 | 0.00283
7 | B7 | 0.122 | > 1 | 0.00263
8 | B8 | > 1 | > 1 | 0.0202
9 | B9 | > 1 | > 1 | 0.0038
10 | B10 | > 1 | > 1 | 0.00395
11 | B11 | > 1 | > 1 | 0.00208
12 | B12 | 0.0776 | 0.412 | 0.00239
13 | B13 | > 1 | > 1 | 0.00244
14 | B14 | > 1 | > 1 | 0.00392
15 | B15 | 0.0125 | 0.0552 | 0.00249
16 | B16 | 0.477 | > 1 | 0.00192

Changes are numbered by the printed parent chain. Recombinant human monoclonal antibodies (heavy:light variable regions). ELISA EC50 on the named antigen, from 10 µg/ml down; IC50 / IC90 against spike pseudovirus on 293T-ACE2 cells, 48 h; lower = stronger. Calls: IC50 above 1,000 ng/ml = non-neutralizing; EC50 above 2,000 ng/ml = non-binder. The source prints 1000 for neutralization that was not reached; it is given as >1000 ng/ml. A few antibodies were first reported in earlier work of the same group.
